# Laboratory results taken from the supplement of paper PMC3334620.
# The full ranking holds about 33,000 sequences; the median of “E-score (-0.5 to 0.5)” is about -0.012, and the highest 2% start at about 0.29. The list shows a part of the results.
# Molecular target: T1, Ybr033w (UniProt P38073)
# T1 sequence: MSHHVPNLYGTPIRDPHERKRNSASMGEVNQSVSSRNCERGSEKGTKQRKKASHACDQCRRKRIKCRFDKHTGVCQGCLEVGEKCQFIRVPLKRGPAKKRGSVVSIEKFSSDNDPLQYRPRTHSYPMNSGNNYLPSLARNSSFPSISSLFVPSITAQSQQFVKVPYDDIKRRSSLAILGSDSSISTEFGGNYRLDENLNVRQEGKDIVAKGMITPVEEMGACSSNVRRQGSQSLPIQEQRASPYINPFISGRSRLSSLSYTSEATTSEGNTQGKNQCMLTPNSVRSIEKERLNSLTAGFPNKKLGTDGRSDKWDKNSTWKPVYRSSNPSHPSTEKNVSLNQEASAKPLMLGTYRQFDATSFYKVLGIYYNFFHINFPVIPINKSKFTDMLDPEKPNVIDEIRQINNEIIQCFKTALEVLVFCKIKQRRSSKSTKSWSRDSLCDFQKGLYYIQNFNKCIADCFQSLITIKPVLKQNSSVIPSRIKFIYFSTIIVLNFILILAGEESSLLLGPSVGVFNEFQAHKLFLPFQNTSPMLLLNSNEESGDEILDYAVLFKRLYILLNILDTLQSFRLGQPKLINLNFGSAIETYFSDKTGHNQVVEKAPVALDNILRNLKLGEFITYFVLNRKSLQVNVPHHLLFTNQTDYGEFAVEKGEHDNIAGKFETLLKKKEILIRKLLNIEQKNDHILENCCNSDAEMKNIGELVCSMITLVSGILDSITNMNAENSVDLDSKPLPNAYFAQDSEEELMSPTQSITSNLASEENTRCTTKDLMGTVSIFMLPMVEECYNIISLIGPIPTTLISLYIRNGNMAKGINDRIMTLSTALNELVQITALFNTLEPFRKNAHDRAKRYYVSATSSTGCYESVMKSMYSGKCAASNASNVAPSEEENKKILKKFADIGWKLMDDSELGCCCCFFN
# Experiment: PBM E-score (8-mer binding enrichment) (E-score (-0.5 to 0.5)); higher = stronger / more preferred TF binding; most listed sequences are background and not binding sites
# Details: protein concentration: 200 nM; construct: GST-full length
# Outline: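 Yeast transcription factors, full-length or as DNA-binding domains, were expressed with a GST tag using PURExpress in vitro transcription/translation. At about 100-200 nM they were applied to universal all-10-mer Agilent arrays, double-stranded by primer extension on fresh or once-stripped slides. Fluorescent anti-GST detected bound protein, and masliner normalised the scans. E-scores for ungapped eight-base words, pooled with reverse complements, came from the Universal PBM Analysis Suite.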
row,Sequence,PBM E-score
1,GGTATAGA,0.0722
2,GAGCAGGC,-0.231
3,TAGGCCAA,0.0127
4,ATCATAAG,0.0948
5,AGCCCCGA,-0.181
6,CGCTCAAC,-0.0141
7,AGCAGGAT,-0.0861
8,ACCCCCGC,-0.302
9,ACATTCGA,-0.00563
10,ATAATAAT,0.305
11,GTTGGGAA,-0.0729
12,GAACAGAC,-0.00445
13,AGCCGGGC,-0.249
14,GGGATATA,0.158
15,ATGTTTAC,0.15
16,CACGTCAG,-0.118
17,ATAACTAA,0.239
18,ACTGGTCC,-0.135
19,CGTAGGAG,-0.204
20,GGAGGTGA,0.0453
21,TCCATCAA,0.312
22,AAACCTTG,-0.00773

row,Sequence,PBM E-score
1,GGCATTAA,-0.067
2,GGCTGCAC,-0.177
3,GATGCTTA,-0.0956
4,AGTCAACC,-0.0562
5,GCGCAGAA,0.122
6,AAGTATCT,0.154
7,AAACAATG,0.157
8,AATAAATG,0.194
9,CGCCTGTA,-0.0767
10,ATCCGGAG,0.143
11,CATGTCTA,-0.00971
12,AGAAGTCG,-0.0629
13,GTGGGCTA,-0.105
14,CCCACCGG,-0.282
15,GTGGATGA,-0.0688
16,ACATGCAT,0.0238
17,AGAAATAA,0.36
18,GCCATAGA,-0.182
19,AATGGTGA,-0.0346
20,CGGGCTGA,-0.226
21,AGACTTAA,-0.0476
22,CGGCGAAA,0.11

row,Sequence,PBM E-score
1,AATCTTAA,0.101
2,ACAGGAGT,0.0153
3,AGCACGGC,-0.201
4,ACTTAGAA,0.0484
5,ATCCAATC,0.125
6,GAGTCCCC,-0.31
7,TACGCTGA,0.138
8,TTATGGAA,0.165
9,GTCAGAGA,-0.0968
10,ATGCAAAC,-0.0696
11,ATTGACGA,0.142
12,ACTTTTAC,0.327
13,CAGCCTGA,-0.141
14,CCCATAAA,-0.181
15,CATTGCAA,0.0231
16,TAAAGCAA,0.225
17,CTCGCCCA,0.0378
18,AGGACGAA,-0.00148
19,AATGCCGT,0.129
20,CGCAGTAG,-0.0369
21,AATCACTA,0.072
22,ATTGGGGA,-0.15

row,Sequence,PBM E-score
1,CATGAGCC,-0.116
2,TGCAGCCA,-0.194
3,CTAGTGAC,-0.0419
4,AGCCTTCA,0.0356
5,AATTGCCA,0.134
6,ATTGTCCG,0.27
7,CCATAGCG,-0.064
8,TATCACCA,0.0892
9,AGCCAGCT,-0.18
10,CGCATCGA,0.137
11,AACACCTC,-0.118
12,CTCGATGA,0.12
13,GGTACAAA,0.119
14,GAAGATGC,-0.106
15,ACGCGGTG,-0.125
16,AATACAAA,0.302
17,AAGGGCTG,-0.0723
18,CCGATATC,0.0977
19,CGCCAAAC,-0.076
20,GGAGGGAA,-0.0794
